In PubChem BioAssay AID485344 (National Center for Advancing Translational Sciences (NCATS), 2010):
Screen size: about 340,000 compounds; about 6,900 (2%) were called active. Cut-off read from the data, not from the text of the source: active = inhibition above about 30%; inactive = below that, where a call was filed. The list shows a part of the results, in another mix than the full data. Where no call is shown, the source filed none.

The compounds below were run against D(2) dopamine receptor (Homo sapiens) (UniProt P14416) (assay: HTS Assay for Allosteric Antagonists of the Human D2 Dopamine Receptor: Primary Screen for Antagonists). Settings: HEK293 TREx D2 cells, calcium flux, dopamine EC80; at 10 µM; stronger effect = higher value.
Outline: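 Calcium mobilization kinetics were recorded at 1 s intervals in tetracycline-induced HEK293 T-REx D2 cells, first for 180 s after compound addition and then 180 s after EC80 dopamine.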
Note: 0% is about no effect.

Chain of UniProt P14416 (P14416 whole entry, looked up): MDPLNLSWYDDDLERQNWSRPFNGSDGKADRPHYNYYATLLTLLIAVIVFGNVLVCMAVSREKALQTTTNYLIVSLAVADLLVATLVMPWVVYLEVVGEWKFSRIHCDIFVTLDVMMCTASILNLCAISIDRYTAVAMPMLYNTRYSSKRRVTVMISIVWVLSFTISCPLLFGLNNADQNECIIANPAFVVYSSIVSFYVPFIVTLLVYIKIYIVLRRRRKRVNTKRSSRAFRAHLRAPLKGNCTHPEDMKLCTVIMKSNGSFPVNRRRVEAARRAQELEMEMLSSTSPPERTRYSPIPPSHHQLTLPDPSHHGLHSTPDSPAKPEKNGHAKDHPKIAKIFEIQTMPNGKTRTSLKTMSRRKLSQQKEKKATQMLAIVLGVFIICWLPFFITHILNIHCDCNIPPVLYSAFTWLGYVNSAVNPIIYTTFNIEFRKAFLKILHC

| Structure (SMILES) | inhibition |
| --- | --- |
| COc1ccc(NC(=O)CCCN2C(=O)CCn3nc(-c4cn(C)c5ccccc45)cc32)cc1OC | -15.5% |
| Cc1cccc(N2CCN(S(=O)(=O)c3ccc4[nH]c5c(c4c3)CCCCC5)CC2)c1C | 3.4% |
| CCOC(=O)c1cccc(NC(=O)CC2C(=O)N(c3ccc(OC)cc3)C(=O)N2C2CCCC2)c1 (configuration not stated) | 13.1% |
| Cc1cccc(C(=O)NCC(=O)OCc2cc(=O)n3nc(C4CCCCC4)sc3n2)c1 | -2.75% |
| CCOC(=O)c1cccc(Nc2cc(-c3ccccc3)ncn2)c1 | -13.2% |
| CCOC(=O)c1c(C)[nH]c(CCC(=O)NCc2ccccc2Cl)c1C | -22% |
| Cc1c(Cl)cccc1NC(=O)c1ccc2snnc2c1 | 2.02% |
| COc1ccccc1NC(=O)CCN1CCCCC1 | 1.36% |
| CCOc1ccc(OCC)c(NC(=O)C2CCN(c3nnc(-n4cccc4)s3)CC2)c1 | 6.72% |
| CCOc1ccc(CN2CCC(Cc3ccccc3)CC2)cc1 | active: 30.4% |
| Cc1nc(-c2ccccc2)sc1CCNC(=O)C(=O)Nc1ccc2c(c1)OCO2 | -16.2% |
| Cc1ccc(NC(=O)C(C)n2nnc3sc4c(c3c2=O)CCCC4)cc1Cl (configuration not stated) | -23.1% |
| CC(=O)c1ccc(NC(=O)CCCSc2nc(-c3ccco3)cc(C(F)(F)F)n2)cc1 | -14.5% |
| CCc1ccc(NC(=O)CSc2nc3ccccc3c(=O)n2CCNC(C)=O)cc1 | -4.53% |
| COc1ccc(OCC(=O)Nc2nnc3n2CCS3)cc1 | 12% |
| FC(F)(F)Oc1ccc2c(c1)NC(c1ccncc1)=NC(c1cccs1)=N2 | 16.3% |
| O=C(COc1ccc(Cl)cc1)Nc1ccc(C(=O)OCc2cc(=O)n3ccsc3n2)cc1 | -14.1% |
| C=Cc1ccc(Cn2c(C)c(CNCCc3ccccc3C)c(C(=O)O)c2C)cc1 | -3.17% |
| Cc1ccn2c(=O)c(C(=O)NCCCN3CCCCC3C)c(O)nc2c1 (configuration not stated) | -3.34% |
| CC1CCCC(C)N1C(=O)CN1C(=O)C(C)(C)Oc2ccc(C(=O)NC3CCCC3)cc21 (configuration not stated) | active: 33.3% |
| Cc1ccc(NC(=O)CCSc2nc(-c3ccco3)cc(C(F)(F)F)n2)cc1F | 21.2% |
| COc1ccc2oc(=O)c(C(=O)Nc3ccc(C(=O)O)cc3)cc2c1 | -2.64% |
| COc1ccc(Cl)cc1NC(=O)Cn1cc(C(=O)c2ccc(C)cc2)c(=O)c2ccc(C)nc21 | 4.24% |
| CCOc1ccc(C(=O)Nc2cccc(C(=O)OCc3cc(=O)n4nc(C5CC5)sc4n3)c2)cc1 | -20.4% |
| CCOC(=O)c1ccccc1NC(=O)CSc1nc(=O)[nH]c2c1CCC2 | 0.268% |
| COc1cc(NC(=O)CCCC(=O)OCC(F)(F)C(F)F)nc(OC)n1 | active: 52.2% |
| Cc1ccccc1CN1C(=O)C2(c3ccccc31)N(c1ccccc1)C(=O)CS2(=O)=O (configuration not stated) | 4.39% |
